The labels stand for the following.
B1: TEV protease; numbered along this chain (parent)
chain: MGESLFKGPRDYNPISSSICHLTNESDGHTTSLYGIGFGPFIITNKHLFRRNNGTLVVQSLHGVFKVKDTTTLQQHLVDGRDMIIIRMPKDFPPFPQKLKFREPQREERICLVTTNFQTKSMSSMVSDTSCTFPSGDGIFWKHWIQTKDGQCGSPLVSTRDGFIVGIHSASNFTNTNNYFTSVPKNFMELLTNQEAQQWVSGWRLNADSVLWGGHKVFMVKPEEPFQPVKEATQL

Some of the results follow. Sequences were assembled here from the parent chain. Values near 0.05 are background.

The assay covers variants of B1. The experiment in a line: raw area under fraction-flipped curve 0-4 h after induction (AUC4h, not background-subtracted), DNA-recorder readout of cleavage of the substrate (dimensionless); higher = more cleavage of the substrate by the protease variant. As to conditions: temperature: 34 °C; time window: 0-4 h after rhamnose induction.
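Note: Bxb1 expression induced with 0.2% (w/v) L-rhamnose at OD600 near 0.5, cultures sampled hourly, flipped fraction per protease–substrate barcode pair counted by paired-end Illumina sequencing.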

For MGESLFKGPRDYNPISSSICHLTNESDGHTTSLYGIGFGPFIITNKHLFRRNNGTLVVQSLHGVFKVKDTTTLQQHLVDGRDMIIIRMPKDFPPFPQKLKFREPQREERICLVTTNFQTKSMSSMVSDTSCTFPSGDGIFWKHWIQTKDGQCGSPLVSTRDGFIVGIHSASNFTNTNNYFTSVPKNFMELLTNQEAQQWVSGWRLNADSVLWGGHKVFMVKPEEMFQPVKEATQL [P225M], the “area with substrate ECLYFQS” value was 0.0883, the “area with substrate EDLYFQS” value is 0.0948, the “area with substrate EELYFQS” value stood at 0.0903 and the “area with substrate EGLYFQS” value worked out at 0.0999. Besides, the “area with substrate EHLYFQS” value was determined as 0.0908, the “area with substrate EILYFQS” value stood at 0.0795, the “area with substrate ELLYFQS” value was found to be 0.0869 and the “area with substrate EMLYFQS” value amounted to 0.106. For the same variant, the “area with substrate EPLYFQS” value was 0.107, the “area with substrate EQLYFQS” value came to 0.112, the “area with substrate ERLYFQS” value turned out to be 0.0991 and the “area with substrate ESLYFQS” value was determined as 0.0884. Also, the “area with substrate EVLYFQS” value came out at 0.0909 and the “area with substrate EYLYFQS” value worked out at 0.171.
On to MGESLFKGPRDYNPISSSICHLTNESDGHTTSLYGIGFGPFIITNKHLFRRNNGTLVVQSLHGVFKVKDTTTLQQHLVDGRDMIIIRMPKDFPPFPQKLKFREPQREERICLVTTNFQTKSMSSMVSDTSCTFPSGDGIFWKHWIQTKDGQCGSPLVSTRDGFIVGIHSASNFTNTNNYFTSVPKNFMELLTNQEAQQWVSGWRLNADSVLWGGHKVFMVKPEEEFQPVKEATQL [P225E], for which the “area with substrate ECLYFQS” value worked out at 0.109, the “area with substrate EDLYFQS” value worked out at 0.118, the “area with substrate EELYFQS” value stood at 0.141 and the “area with substrate EFLYFQS” value turned out to be 0.0744. The “area with substrate EHLYFQS” value came to 0.132, the “area with substrate EILYFQS” value turned out to be 0.129, the “area with substrate EKLYFQS” value was found to be 0.101 and the “area with substrate ELLYFQS” value is 0.124. For the same variant, the “area with substrate EQLYFQS” value turned out to be 0.176 and the “area with substrate ETLYFQS” value stood at 0.11.
In the case of MGESLFKGPRDYNPISSSICHLTNESDGHTTSLYGIGFGPFIITNKHLFRRNNGTLVVQSLHGVFKVKDTTTLQQHLVDGRDMIIIRMPKDFPPFPQKLKFREPQREERICLVTTNFQTKSMSSMVSDTSCTFPSGDGIFWKHWIQTKDGQCGSPLVSTRDGFIVGIHSASNFTNTNNYFTSVPKNFMELLTNQEAQQWVSGWRLNADSVLWGGHKVFMVKPEEQFQPVKEATQL [P225Q], the “area with substrate ECLYFQS” value turned out to be 0.126, the “area with substrate EDLYFQS” value was 0.124, the “area with substrate EFLYFQS” value is 0.116 and the “area with substrate EKLYFQS” value is 0.118. The “area with substrate ELLYFQS” value was 0.0907, the “area with substrate EMLYFQS” value is 0.0987, the “area with substrate EQLYFQS” value stood at 0.132 and the “area with substrate EVLYFQS” value came to 0.084. The “area with substrate EWLYFQS” value was determined as 0.0832 and the “area with substrate EYLYFQS” value amounted to 0.103.
Turning to MGESLFKGPRDYNPISSSICHLTNESDGHTTSLYGIGFGPFIITNKHLFRRNNGTLVVQSLHGVFKVKDTTTLQQHLVDGRDMIIIRMPKDFPPFPQKLKFREPQREERICLVTTNFQTKSMSSMVSDTSCTFPSGDGIFWKHWIQTKDGQCGSPLVSTRDGFIVGIHSASNFTNTNNYFTSVPKNFMELLTNQEAQQWVSGWRLNADSVLWGGHKVFMVKPEEPFQPVKFATQL [E231F], the “area with substrate ECLYFQS” value came out at 0.0855, the “area with substrate EDLYFQS” value was 0.121, the “area with substrate EELYFQS” value came to 0.0936 and the “area with substrate EILYFQS” value was 0.063. Also, the “area with substrate ELLYFQS” value was 0.0766, the “area with substrate EMLYFQS” value came to 0.101, the “area with substrate ESLYFQS” value came out at 0.0904 and the “area with substrate EVLYFQS” value was 0.0746. For the same variant, the “area with substrate EWLYFQS” value came out at 0.0889.
With MGESLFKGPRDYNPISSSICHLTNESDGHTTSLYGIGFGPFIITNKHLFRRNNGTLVVQSLHGVFKVKDTTTLQQHLVDGRDMIIIRMPKDFPPFPQKLKFREPQREERICLVTTNFQTKSMSSMVSDTSCTFPSGDGIFWKHWIQTKDGQCGSPLVSTRDGFIVGIHSASNFTNTNNYFTSVPKNFMELLTNQEAQQWVSGWRLNADSVLWGGHKSFMVKPEEPFQPVKEATQL [V217S], the “area with substrate ECLYFQS” value came out at 0.0584, the “area with substrate EFLYFQS” value was determined as 0.0751, the “area with substrate EHLYFQS” value is 0.0524 and the “area with substrate EILYFQS” value was 0.0466. Further, the “area with substrate EKLYFQS” value was determined as 0.053, the “area with substrate EMLYFQS” value is 0.0601, the “area with substrate EPLYFQS” value worked out at 0.0893 and the “area with substrate EQLYFQS” value was determined as 0.0652. The “area with substrate ERLYFQS” value is 0.0556, the “area with substrate ESLYFQS” value amounted to 0.0483, the “area with substrate EWLYFQS” value is 0.0661 and the “area with substrate EYLYFQS” value came out at 0.0586.
Take MGESLFKGPRDYNPISSSICHLTNESDGHTTSLYGIGFGPFIITNKHLFRRNNGTLVVQSLHGVFKVKDTTTLQQHLVDGRDMIIIRMPKDFPPFPQKLKFREPQREERICLVTTNFQTKSMSSMVSDTSCTFPSGDGIFWKHWIQTKDGQCGSPLVSTRDGFIVGIHSASNFTNTNNYFTSVPKNFMELLTNQEAQQWVSGWRLNADSVLWGGHKYFMVKPEEPFQPVKEATQL [V217Y]: the “area with substrate ECLYFQS” value is 0.0592, the “area with substrate EFLYFQS” value is 0.0576, the “area with substrate EGLYFQS” value is 0.0504 and the “area with substrate EILYFQS” value turned out to be 0.0622. Also, the “area with substrate ELLYFQS” value came out at 0.0615, the “area with substrate EMLYFQS” value is 0.0543, the “area with substrate EPLYFQS” value was 0.0567 and the “area with substrate ERLYFQS” value stood at 0.07. The “area with substrate ESLYFQS” value was 0.0607 and the “area with substrate EWLYFQS” value is 0.0565.
In the case of MGESLFKGPRDYNPISSSICHLTNESDGHTTSLYGIGFGPFIITNKHLFRRNNGTLVVQSLHGVFKVKDTTTLQQHLVDGRDMIIIRMPKDFPPFPQKLKFREPQREERICLVTTNFQTKSMSSMVSDTSCTFPSGDGIFWKHWIQTKDGQCGSPLVSTRDGFIVGIHSASNFTNTNNYFTSVPKNFMELLTNQEAQQWVSGWRLNADSVLWGGHKVFMVKPEEPFQPSKEATQL [V229S], the “area with substrate ECLYFQS” value turned out to be 0.0907, the “area with substrate EELYFQS” value is 0.137, the “area with substrate EILYFQS” value worked out at 0.101 and the “area with substrate ELLYFQS” value was 0.124. Besides, the “area with substrate EMLYFQS” value was determined as 0.118, the “area with substrate EQLYFQS” value was 0.136, the “area with substrate ERLYFQS” value was 0.0828 and the “area with substrate ESLYFQS” value was determined as 0.1.
In the case of MGESLFKGPRDYNPISSSICHLTNESDGHTTSLYGIGFGPFIITNKHLFRRNNGTLVVQSLHGVFKVKDTTTLQQHLVDGRDMIIIRMPKDFPPFPQKLKFREPQREERICLVTTNFQTKSMSSMVSDTSCTFPSGDGIFWKHWIQTKDGQCGSPLVSTRDGFIVGIHSASNFTNTNNYFTSVPKNFMELLTNQEAQQWVSGWRLNADSVLWGGHKVFMVKPEEPFQPTKEATQL [V229T], the “area with substrate ECLYFQS” value was 0.0993, the “area with substrate EELYFQS” value was 0.112, the “area with substrate EILYFQS” value came out at 0.109 and the “area with substrate ELLYFQS” value is 0.087. Besides, the “area with substrate EPLYFQS” value is 0.116, the “area with substrate ERLYFQS” value was determined as 0.102, the “area with substrate ESLYFQS” value turned out to be 0.0871 and the “area with substrate EWLYFQS” value was 0.078. The “area with substrate EYLYFQS” value amounted to 0.109.
As for MGESLFKGPRDYNPISSSICHLTNESDGHTTSLYGIGFGPFIITNKHLFRRNNGTLVVQSLHGVFKVKDTTTLQQHLVDGRDMIIIRMPKDFPPFPQKLKFREPQREERICLVTTNFQTKSMSSMVSDTSCTFPSGDGIFWKHWIQTKDGQCGSPLVSTRDGFIVGIHSASNFTNTNNYFTSVPKNFMELLTNQEAQQWVSGWRLNADSVLWGGHKVFMVKPEEPFQPVHEATQL [K230H], the “area with substrate ECLYFQS” value was 0.112, the “area with substrate EDLYFQS” value turned out to be 0.0916, the “area with substrate EFLYFQS” value turned out to be 0.105 and the “area with substrate EGLYFQS” value is 0.0937. Besides, the “area with substrate EHLYFQS” value was determined as 0.0668, the “area with substrate EILYFQS” value came out at 0.12, the “area with substrate ELLYFQS” value came out at 0.0861 and the “area with substrate EMLYFQS” value was 0.119. The “area with substrate EPLYFQS” value is 0.095, the “area with substrate ERLYFQS” value amounted to 0.113, the “area with substrate ESLYFQS” value amounted to 0.0998 and the “area with substrate ETLYFQS” value is 0.136. Also, the “area with substrate EVLYFQS” value came out at 0.103.
Turning to MGESLFKGPRDYNPISSSICHLTNESDGHTTSLYGIGFGPFIITNKHLFRRNNGTLVVQSLHGVFKVKDTTTLQQHLVDGRDMIIIRMPKDFPPFPQKLKFREPQREERICLVTTNFQTKSMSSMVSDTSCTFPSGDGIFWKHWIQTKDGQCGSPLVSTRDGFIVGIHSASNFTNTNNYFTSVPKNFMELLTNQEAQQWVSGWRLNADSVLWGGHKVFMVKPEEPFQPVQEATQL [K230Q], the “area with substrate ECLYFQS” value was found to be 0.115, the “area with substrate EDLYFQS” value is 0.0887, the “area with substrate EELYFQS” value was 0.131 and the “area with substrate EGLYFQS” value amounted to 0.0942. Besides, the “area with substrate EHLYFQS” value turned out to be 0.112, the “area with substrate EILYFQS” value came out at 0.0741, the “area with substrate ELLYFQS” value was 0.0806 and the “area with substrate EMLYFQS” value worked out at 0.119. Moreover, the “area with substrate EPLYFQS” value worked out at 0.148, the “area with substrate EQLYFQS” value was found to be 0.103, the “area with substrate ERLYFQS” value worked out at 0.0948 and the “area with substrate ESLYFQS” value turned out to be 0.0956. Also, the “area with substrate EVLYFQS” value came out at 0.0974.

The record behind these values is the supplement of paper PMC12217912.
